# Some of the results follow. At the low end of the ranking, values are background and their order means little.
# Target: T1, GST-Rok-C97-191 (UniProt O34857)
# T1 sequence: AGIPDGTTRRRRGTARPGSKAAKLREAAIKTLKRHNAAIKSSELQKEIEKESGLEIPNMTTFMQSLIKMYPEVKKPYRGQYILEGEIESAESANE
# Assay: protein binding microarray;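 further: rank score from −0.5 (least bound) to 0.5 (best bound)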
# Conditions: Rok is a gene silencer of Bacillus subtilis; high values mean tight binding; most listed sequences are background and not binding sites; double strand, one strand shown
row,Sequence,binding signal [E-score]
1,AAGACGAA,0.0188
2,GCCTCAGA,-0.238
3,GGGCCTAC,-0.157
4,TCCGTTCA,-0.145
5,AGTTAAGA,0.0443
6,AGCGACAA,-0.196
7,AACAATCG,0.0562
8,AAGCCACG,-0.355
9,GGGCTTAA,-0.174
10,CCCACTGA,-0.286
11,AAACGTGT,0.00989
12,CATGATCC,0.0498
13,TTAGTCAA,0.178
14,ACCTTAAC,-0.00952
15,AGGCTAAA,0.025
16,CACCACCC,-0.216
17,ATTAAAGA,0.0688
18,ATTAGAAT,0.172
19,AGGTTTGC,-0.00436
20,GTCTCGCA,-0.092
21,GCCATCCC,-0.322
22,AATGCCCA,-0.197
23,CCGATGCC,-0.213
24,CCCCCACA,-0.2
25,AATGTCTG,-0.0689

row,Sequence,binding signal [E-score]
1,AACTTGAT,0.106
2,CCCGAAAG,-0.363
3,ATTACGAG,0.189
4,CGGAGCTA,-0.0829
5,CTGGAAGA,-0.0538
6,CTGAAGAA,-0.16
7,AATTGCGA,0.139
8,CTGTGCGC,-0.089
9,GCCTGCGC,-0.24
10,AGCCGTTG,-0.179
11,AGTTATAG,0.258
12,ATTGAGAA,0.039
13,CCCCGGGC,-0.292
14,GGTTATGA,-0.179
15,ACGCCTTC,-0.108
16,GACATAAC,0.151
17,CCTCTTGA,-0.179
18,ATTCGGAC,-0.173
19,CATCCGCA,-0.0559
20,AACCCCGT,-0.201
21,AATGGCTC,-0.0224
22,ATAACCAC,-0.0135
23,CCTGGTCC,-0.28
24,CATGTGTC,0.0554
25,AGTTACGG,0.228

row,Sequence,binding signal [E-score]
1,CTTAGAGC,-0.167
2,AAGAAGGA,-0.0711
3,AGGATGCA,0.11
4,GGGGGCTA,-0.267
5,AAATGAGA,-0.0222
6,CAAACGTC,-0.0617
7,CCGGCCTA,-0.0345
8,AAACCCCA,-0.228
9,ATATGAGG,-0.0533
10,CAGGGACC,-0.0539
11,ATTCCACC,-0.0276
12,AAAAGACG,0.0272
13,GCTAGACA,0.112
14,ATCCCGTG,-0.234
15,CCCGCTCA,-0.228
16,AATGTCGG,-0.117
17,GAGCGTAC,-0.187
18,CTAACAGA,0.202
19,CAATAATC,0.0525
20,CTGGCAGC,-0.153
21,GTTACTGA,0.173
22,AACCTTTC,-0.136
23,TTCTAGAA,0.2
24,CTGAGTCC,-0.0831
25,GCTAGAAA,0.314

row,Sequence,binding signal [E-score]
1,AGAACATG,0.0464
2,ACCCCTGA,-0.105
3,GAACGTCC,-0.241
4,CCAGACCG,-0.0852
5,AATCGAAG,0.193
6,GCAAGCAA,-0.202
7,CCACCTAC,-0.0319
8,CCAAACGG,-0.0693
9,GATTTGTA,0.176
10,CTCGGGTA,0.109
11,GGTTGAAC,-0.221
12,GTTCCTAA,0.0575
13,AGGATGTA,0.0969
14,CTGTTTGA,-0.14
15,AAGGTAAC,0.0652
16,CAACTAGC,0.214
17,CTATTCGC,-0.0491
18,ATTGTACC,0.239
19,CGGTTGGA,-0.268
20,AAGTCAAG,-0.109
21,AATCCAAC,-0.0501
22,AGCACGGA,0.0231
23,AAGCCGCG,-0.245
24,CTGCCTAC,-0.132
25,GAACGCTA,0.137

row,Sequence,binding signal [E-score]
1,CATGAGAG,-0.187
2,CTAACGCA,0.0173
3,AGATTCGG,-0.0529
4,ACCCCCCA,-0.305
5,GACGTATA,0.174
6,CCTAGTCC,-0.164
7,GGAAATTA,0.28
8,CTTGGGGC,-0.262
9,ACCTGACA,-0.11
10,CTGAAGAC,-0.14
11,AACTTATC,0.168
12,ATCCTGTC,-0.233
13,GTACATGA,0.0885
14,GCTCAGGA,0.0987
15,ATCGATAG,0.32
16,ATATATAA,0.449
17,GCTTCTGA,0.0142
18,AAATGGTT,0.177
19,AGACGAAC,-0.00423
20,AATTCGGT,0.0422
21,ATAGCAGG,-0.137
22,AAATAGTT,0.406
23,AGTCGCGA,-0.211
24,ATCCAACA,-0.119
25,AGGGTAAA,0.174

row,Sequence,binding signal [E-score]
1,ACAAGCAT,0.0796
2,GAATTCCA,-0.0181
3,AACTCTCA,0.0933
4,CGCATTTA,0.074
5,AGACGCCC,-0.321
6,GAGTACTC,-0.0307
7,TACAGGAA,0.0535
8,CGCAGAGA,-0.151
9,AGGGCGAT,-0.0828
10,ACGAGTGG,-0.0396
11,ATGGAACC,-0.195
12,ATTGACGG,-0.0344
13,TCTGTCCA,-0.187
14,AATAATGG,0.152
15,AAGCAAGT,-0.0255
16,CACCTACA,-0.0593
17,ATAAAAAT,0.28
18,GACGACAC,-0.151
19,ATTATCGA,0.277
20,ACGACCGC,-0.0419
21,TAGTCCAA,-0.101
22,ATAATAAT,0.31
23,AAAGTGCC,-0.118
24,GGTCGTCA,-0.0524
25,TACTCAGA,0.152

row,Sequence,binding signal [E-score]
1,GGGCACAA,-0.0838
2,CATCTGAA,-0.0216
3,AATGACGT,0.0906
4,AGGCGAGG,-0.17
5,GGAAACCC,-0.165
6,CGCACCCA,-0.0465
7,AAGGACTT,-0.119
8,GAAGTCGC,-0.137
9,CGTGGAAG,-0.14
10,CGTCGATC,0.0279
11,ATTCCTTA,0.0527
12,TGCGAAAA,-0.119
13,GAAAAACC,0.0262
14,ACTCCTGA,-0.0592
15,CCTCAAGC,-0.145
16,ACGATATC,0.188
17,CAAGTCTA,-0.201
18,AAGGCACA,-0.257
19,CGACAACG,-0.231
20,CGGTTAAG,0.0266
21,ACGTGGCA,-0.0377
22,CGACCTGA,-0.0972

# From PMC6212790
